Several values for one entry are separate records, joined by “and”; a condition that tells them apart may be missing. Equal entries are not always repeated. The shares of active, inactive and inconclusive entries below differ from those in the screen. Potencies of inconclusive entries are doubtful fits and often do not repeat. A structure can be active in one record and inactive in another. Activity calls are given as the source filed them. Unless noted, the call rests on the fitted dose curve; in most records, active means well fitted cell-killing curve with a large enough effect in the repeat runs; inconclusive means weak or mixed curves, or effect the other way; inactive means no such curve, though single readings can be large or run the other way.
Legend:
[1] = qHTS assay to identify small molecule agonists of the farnesoid-X-receptor (FXR) signaling pathway - cell viability counter screen (AID 743218); settings: FXR-bla HEK293T viability, CellTiter-Glo luminescence, 16 h; viability change, negative = cytotoxic: at 62.6 µM (top of the series) unless noted; further: nearly all actives have a fitted effect of over 45% in size
Method in brief: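 Readout: CellTiter-Glo luminescence, 30 min RT, multiplexed after the FXR-bla FRET reading. HEK 293T FXR-UAS-bla cells received compound 5 h post-plating and were incubated 16 h at 37 C.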

[2] = target: Bile acid receptor (Homo sapiens) (UniProt Q96RI1); test: qHTS assay to identify small molecule agonists of the farnesoid-X-receptor (FXR) signaling pathway (AID 743220; active means well fitted activation curve with a large enough effect in the signal ratio in the repeat runs, not every such curve was filed as active; inconclusive means weak or mixed curves, or effect the other way; the % refers to the signal ratio; on activation: on the % scale 0 is the no-effect control and ±100 the full control effect); settings: HEK293T FXR-UAS-bla, beta-lactamase FRET ratio, 16 h; activation: at 62.6 µM (top of the series) unless noted
UniProt Q96RI1, sequence (Q96RI1 whole entry, looked up): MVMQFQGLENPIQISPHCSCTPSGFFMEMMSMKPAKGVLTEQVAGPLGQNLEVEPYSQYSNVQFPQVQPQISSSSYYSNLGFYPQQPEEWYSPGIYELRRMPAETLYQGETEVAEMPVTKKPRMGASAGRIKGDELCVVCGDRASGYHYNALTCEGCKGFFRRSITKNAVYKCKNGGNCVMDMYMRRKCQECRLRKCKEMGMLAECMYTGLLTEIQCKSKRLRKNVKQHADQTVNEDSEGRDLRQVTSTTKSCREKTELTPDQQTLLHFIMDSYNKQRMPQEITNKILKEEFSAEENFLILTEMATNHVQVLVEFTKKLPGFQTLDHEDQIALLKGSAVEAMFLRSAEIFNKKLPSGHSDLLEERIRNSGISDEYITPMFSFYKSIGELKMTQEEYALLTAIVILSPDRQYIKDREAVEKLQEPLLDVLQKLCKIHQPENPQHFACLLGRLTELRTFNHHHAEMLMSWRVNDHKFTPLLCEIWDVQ
Method in brief: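 FXR-UAS-bla HEK 293T cells carrying a UAS-driven beta-lactamase reporter were plated for 5 h at 37C/5% CO2, then exposed to DMSO-dissolved Tox21 10K compounds for 16 h at 37C. A LiveBLAzer B/G FRET substrate was loaded for 2 h at room temperature before fluorescence reading.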

[3] = qHTS assay to identify small molecule antagonists of the farnesoid-X-receptor (FXR) signaling pathway - cell viability counter screen (AID 743221; active means well fitted cell-killing curve with a large enough effect in the repeat runs, not every such curve was filed as active; inconclusive means weak or mixed curves, or effect the other way; inactive means no such curve, though single readings can be large or run the other way; further: nearly all actives have a fitted effect of over 50% in size); settings: FXR-bla HEK293T viability, CellTiter-Glo luminescence, 16 h; activity change, negative = cytotoxicity: at 62.6 µM (top of the series) unless noted
Method in brief: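 After a 5 h settling period, FXR-bla HEK 293T cells receive compound and chenodeoxycholic acid (50 uM final) and incubate 16 h at 37 C; CellTiter-Glo luminescence, read after 30 min at room temperature, reports cell viability.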

[4] = target: Vitamin D3 receptor (Homo sapiens) (UniProt P11473); test: qHTS assay to identify small molecule agonists of the vitamin D receptor (VDR) signaling pathway (AID 743222; calls by dose curve; on activation: on the % scale 0 is the no-effect control and ±100 the full control effect); settings: HEK293T VDR-UAS-bla, beta-lactamase FRET ratio, 16 h; activation: at 63.5 µM (top of the series) unless noted
UniProt P11473, sequence (P11473 whole entry, looked up): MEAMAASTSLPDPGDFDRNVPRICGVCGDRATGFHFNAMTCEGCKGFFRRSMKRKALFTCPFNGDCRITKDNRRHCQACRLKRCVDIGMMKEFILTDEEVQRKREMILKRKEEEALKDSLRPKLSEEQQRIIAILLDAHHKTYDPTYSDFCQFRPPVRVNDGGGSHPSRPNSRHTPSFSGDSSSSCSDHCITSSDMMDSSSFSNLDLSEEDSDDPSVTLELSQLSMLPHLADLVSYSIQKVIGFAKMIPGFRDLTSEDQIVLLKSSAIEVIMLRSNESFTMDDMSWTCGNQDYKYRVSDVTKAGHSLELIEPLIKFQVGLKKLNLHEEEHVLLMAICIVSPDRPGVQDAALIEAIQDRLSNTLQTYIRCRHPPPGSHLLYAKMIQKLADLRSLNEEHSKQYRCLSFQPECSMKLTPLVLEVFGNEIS
Method in brief: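 Following 4 h attachment at 37C, VDR-bla cells (2,000 per well) received DMSO-dissolved compounds or controls. After 16 h incubation, LiveBLAzer B/G FRET substrate was added and fluorescence read 2 h later at room temperature.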

[5] = target: Vitamin D3 receptor (Homo sapiens) (UniProt P11473); test: qHTS assay to identify small molecule antagonists of the vitamin D receptor (VDR) signaling pathway (AID 743223; active means well fitted inhibition curve with a large enough effect in the signal ratio in the repeat runs, not every such curve was filed as active; inconclusive means weak or mixed curves, or effect the other way; inactive means no such curve, though single readings can be large or run the other way; the % refers to the signal ratio; on activity change, negative = inhibition: on the % scale 0 is the no-effect control and ±100 the full control effect); settings: VDR-UAS-bla HEK293T, beta-lactamase FRET ratio, 16 h
Method in brief: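 Reporter line VDR-bla; stimulus 1alpha,25-(OH)2 vitamin D3, 3 nM final; compound co-addition, 16 h 37C/5% CO2; LiveBLAzer B/G substrate 2 h RT; fluorescence intensity.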

[6] = qHTS assay to identify small molecule antagonists of the vitamin D receptor (VDR) signaling pathway - cell viability counter screen (AID 743225); settings: VDR-bla HEK293T viability, CellTiter-Glo luminescence, 16 h; viability change, negative = cytotoxic: at 61 µM (top of the series); further: nearly all actives have a fitted effect of over 50% in size
Method in brief: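 Parallel cytotoxicity test: VDR-UAS-bla HEK 293T, 3 nM (final) 1-alpha,25-dihydroxyvitamin D3 with test compound, 16 h, 37C. Endpoint is CellTiter-Glo luminescence in the same wells.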

[7] = qHTS assay to identify small molecule agonists of the NFkB signaling pathway (AID 1159509; active means well fitted curve in the direction sought with a large enough effect in the signal ratio in the repeat runs, not every such curve was filed as active; inconclusive means weak or mixed curves, or a change in a side signal; inactive means no such curve, though single readings can be large or run the other way; the % refers to the signal ratio); settings: NFkB-bla ME-180 cells, beta-lactamase FRET ratio, 5 h; activation: at 61 µM (top of the series) unless noted
Method in brief: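 Pathway activation was measured in ME-180 cells stably expressing beta-lactamase under NF-kB response element control. Substrate cleavage was read as the 460/530 nm emission shift after 5 hr compound incubation.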

[8] = qHTS assay to identify small molecule agonists of the NFkB signaling pathway - cell viability counter screen (AID 1159515; calls by dose curve; further: nearly all actives have a fitted effect of over 55% in size)
Method in brief: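 Plate 2,000 NFkB-bla ME-180 cells/well; incubate overnight. Add compounds, 5 hr at 37 C. Add FRET substrate, 1.5 hr RT. Add CellTiter-Glo, 30 min RT; read luminescence.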

[9] = qHTS assay to identify small molecule agonists of the endoplasmic reticulum stress response signaling pathway (AID 1159516; active means well fitted activation curve with a large enough effect in the signal ratio in the repeat runs, not every such curve was filed as active; inconclusive means weak or mixed curves, or effect the other way; the % refers to the signal ratio; on activation: on the % scale 0 is the no-effect control and ±100 the full control effect); settings: ESRE-bla HeLa, ER stress beta-lactamase reporter, 5 h; activation: at 61 µM (top of the series) unless noted
Method in brief: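 Beta-lactamase expression from the ER stress response element in HeLa reporter cells is quantified with the LiveBLAzer B/G FRET substrate, read at 405 nm excitation after 2 hr at room temperature, following 5 hr compound treatment at 37 C.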

[10] = qHTS assay to identify small molecule agonists of the vitamin D receptor (VDR) signaling pathway - cell viability counter screen (AID 743224); further: nearly all actives have a fitted effect of over 50% in size
Method in brief: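 In parallel with the bla FRET readout, cytotoxicity toward VDR-bla cells after 16 h compound exposure was assessed by CellTiter-Glo, with luminescence recorded after a 30 min room-temperature incubation.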

[11] = activity change, negative = inhibition: at 61 µM (top of the series) unless noted
Potency means the concentration at half of the fitted maximal effect; tags describe the fitted curve by direction and shape or compound fluorescence and quenching.

SMILES	Potency [1]	Potency [2]	activation [2]	Potency [3]	Potency [4]	Potency [5, 11]	Potency [6]	Potency [7]	Potency [8]	Potency [9]	activation [4]	Potency [10]	activity change, negative = inhibition [5, 11]	activity change, negative = inhibition ([5]; at 61 µM (top of the series))	activity change, negative = inhibition ([5]; at 78.8 µM (top of the series))	activation [9]
C[CH2][Hg][S]c1ccccc1C(=O)O	active: 1.55 µM and active: 2.66 µM	inconclusive: 0.422 µM [rising, full curve, poor fit]	inconclusive: 11.4%	active: 6.92 µM and active: 4.22 µM	inconclusive: 0.692 µM [rising, partial curve, poor fit]	inconclusive: 2.75 µM and active: 3.38 µM	active: 3.47 µM and active: 4.25 µM	inconclusive: 2.45 µM [falling, full curve] and inconclusive: 6.01 µM [falling, full curve]	active: 3.47 µM and active: 6.01 µM	inconclusive: 43.6 µM and inconclusive: 15.1 µM [partial curve]	–	–	–	–	–	–
[CH3][Hg][Cl]	active: 13.8 µM	inconclusive: 19.5 µM [fluorescent, partial curve]	–	–	–	inconclusive: 54.8 µM [fluorescent, partial curve]	inconclusive: 61.5 µM [cytotoxic, single point]	inconclusive: 10.9 µM [full curve]	active: 10.9 µM	inconclusive: 34.6 µM [falling, partial curve, poor fit]	inconclusive: -0.237%	–	–	–	–	–
Cc1ccc(N(SC(F)(Cl)Cl)S(=O)(=O)N(C)C)cc1	active: 13.8 µM	–	inconclusive: -4.67%	active: 19.5 µM	–	inconclusive: 4.36 µM [rising, partial curve]	–	inconclusive: 19.5 µM [falling, partial curve]	inconclusive: 61.6 µM [cytotoxic]	inconclusive: 49 µM [falling, single point]	inconclusive: -1.12%	–	–	–	–	–
C=CC(=O)[O][Sn]([CH2]CCC)([CH2]CCC)[CH2]CCC	active: 1.1 µM	inconclusive: 13.8 µM [cytotoxic, full curve]	–	active: 3.89 µM	–	inconclusive: 3.89 µM [rising, partial curve]	active: 3.09 µM	inconclusive: 0.977 µM [falling, full curve]	active: 0.977 µM	inconclusive: 17.4 µM [cytotoxic, full curve]	–	active: 1.38 µM	–	–	–	–
Oc1ccc(C2(c3ccc(O)cc3)CCCCC2)cc1	active: 23.2 µM	inactive	–	inconclusive: 58.4 µM [falling, single point]	inconclusive: 0.655 µM [rising, full curve, poor fit]	inconclusive: 52.1 µM [inhibitor, single point]	active: 36.8 µM	inconclusive: 58.4 µM	inconclusive: 58.4 µM [cytotoxic, single point]	inconclusive: 58.4 µM [cytotoxic]	–	–	–	–	–	–
O=C1C(Cl)=C(Cl)C(=O)C(Cl)=C1Cl	active: 19.5 µM	inconclusive: 24.5 µM [fluorescent]	inconclusive: -1.67%	–	inconclusive: 13.8 µM [fluorescent, partial curve, poor fit]	–	inconclusive: 21.8 µM [cytotoxic, partial curve, poor fit] and active: 17.4 µM	inconclusive: 24.5 µM [falling, partial curve] and inconclusive: 38.9 µM [falling, partial curve]	inconclusive: 54.8 µM [cytotoxic, single point] and active: 38.9 µM	inconclusive: 54.8 µM [falling, single point] and inconclusive: 54.9 µM [falling, single point]	–	–	–	–	–	–
CC(C)c1ccc(OP(=O)(Oc2ccc(C(C)C)cc2)Oc2ccc(C(C)C)cc2)cc1	inconclusive: 27.7 µM [cytotoxic, partial curve] and inconclusive: 17.4 µM [cytotoxic, full curve, poor fit] and inconclusive: 6.16 µM [cytotoxic, full curve]	inconclusive: 55 µM [activator, single point]	–	–	–	–	inconclusive: 49.3 µM [cytotoxic, partial curve, poor fit] and inconclusive: 21.9 µM [cytotoxic, partial curve, poor fit] and inconclusive: 2.19 µM [cytotoxic, partial curve, poor fit]	inconclusive: 24.7 µM [falling, partial curve] and inconclusive: 43.7 µM [falling, partial curve] and inconclusive: 38.9 µM [falling, partial curve]	inconclusive: 22 µM [cytotoxic, partial curve] and inconclusive: 49 µM [cytotoxic, partial curve] and active: 30.9 µM	inconclusive: 54.9 µM [falling, partial curve, poor fit]	inconclusive: -31.3% [at 81.1 µM]	–	inconclusive: -1.22%	inactive: 0.343%	inactive: -5.35%	–
CC(O)C(=O)[O][Hg][c]1ccccc1 (stereo not given)	active: 1.23 µM	inconclusive: 8.71 µM [falling, full curve]	–	active: 2.75 µM	–	inconclusive: 0.977 µM [rising, partial curve]	active: 1.74 µM	inconclusive: 0.776 µM [falling, full curve]	active: 0.871 µM	inconclusive: 1.95 µM [falling, full curve]	–	active: 1.23 µM	–	–	–	–
O=[N+]([O-])c1cc(C(F)(F)F)c(Cl)c([N+](=O)[O-])c1Cl	active: 7.76 µM	inconclusive: 13.8 µM [fluorescent, partial curve]	–	–	inconclusive: 1.38 µM [rising, full curve, poor fit]	inconclusive: 5.49 µM [full curve]	active: 21.9 µM	inconclusive: 24.5 µM [falling, partial curve]	active: 54.9 µM	inconclusive: 54.9 µM [cytotoxic, partial curve, poor fit]	–	–	–	–	–	–
CCCCCCCCCCCCCCCCCCn1cc[n+](C)c1	active: 48.7 µM	inconclusive: 61.3 µM [cytotoxic]	–	active: 34.5 µM	inconclusive: 2.44 µM [inhibitor, full curve, poor fit]	inconclusive: 21.7 µM	active: 19.4 µM	inconclusive: 34.5 µM [falling, partial curve]	active: 48.7 µM	inconclusive: 8.66 µM [partial curve, poor fit]	–	–	–	–	–	–
O=c1ssc(Cl)c1Cl	inconclusive: 54.9 µM [cytotoxic, single point]	inactive	–	–	–	inconclusive: 49 µM [rising, partial curve]	inconclusive: 4.9 µM [rising, full curve, poor fit]	inconclusive: 21.9 µM [falling, partial curve]	active: 27.5 µM	inconclusive: 61.6 µM [single point]	–	active: 43.6 µM	–	–	–	–
COc1ccc(C(c2ccc(OC)cc2)C(Cl)(Cl)Cl)cc1	inconclusive: 1.45 µM	inconclusive: 21.7 µM [falling, single point]	–	–	inconclusive: 43.4 µM [fluorescent, partial curve]	–	inconclusive: 0.122 µM [cytotoxic, full curve, poor fit]	inconclusive: 17.3 µM	inconclusive: 54.6 µM [rising, partial curve, poor fit]	inconclusive: 27.4 µM [falling, partial curve]	–	inconclusive: 24.4 µM [cytotoxic, full curve]	inconclusive: 3.27%	–	–	–
c1ccc2c(c1)Sc1ccccc1N2CC1CN2CCC1CC2 (stereo not given)	active: 10.6 µM	inconclusive: 33.5 µM [single point]	–	active: 18.8 µM	inconclusive: 29.8 µM [rising, partial curve]	–	active: 21.3 µM	inconclusive: 10.7 µM [falling, single point]	inconclusive: 26.8 µM [cytotoxic]	inconclusive: 26.8 µM [rising, partial curve, poor fit]	–	–	–	–	–	–
Cc1ccc([N+](=O)[O-])[c]2c1[O][Hg]2	active: 2.37 µM	inconclusive: 11.9 µM [falling, full curve]	–	active: 1.19 µM	inconclusive: 1.06 µM [rising, partial curve, poor fit]	inconclusive: 1.2 µM	active: 3.01 µM	inconclusive: 4.77 µM [falling, full curve]	active: 6.01 µM	inconclusive: 21.3 µM [partial curve]	–	–	–	–	–	–
O=[N+]([O-])c1c(Cl)c(Cl)cc(Cl)c1Cl	inconclusive: 0.0616 µM [rising, full curve, poor fit]	inconclusive: 49 µM [falling, partial curve, poor fit]	–	–	–	–	inconclusive: 21.9 µM [rising, partial curve, poor fit]	inconclusive: 49 µM [falling, partial curve]	inconclusive: 54.9 µM [rising, partial curve, poor fit]	–	inconclusive: 6.56% [at 81.1 µM]	–	inconclusive: -0.76%	–	–	inconclusive: -4.5%

Reference: PubChem BioAssay (Tox21)
